The supplement of paper PMC7826260
The list shows a part of the results. Each Rep nickase domain was tested in vitro on the same pool of single strands at 3 µM enzyme and 37 °C for 1 h; the strands have 90 letters, of which the middle is given. The score is log2 (uncut reads / reads without enzyme); more negative means more cut, near 0 not cut, and no call is made. The scaling is to total reads; values above 0 arise when much of the pool is cut.

How the values were obtained:
Experiment in all cases: uncleaved DNA left, log2 of reads against the no-enzyme library (log2 ratio); higher = less cleavage (more negative = more Rep cleavage of the k-mer); sequences stand for … in CTCGTCCG…ACCGGAGA
[1] = tested on: T1, Rep nickase domain of Muscovy duck circovirus
T1 sequence (Rep 1-111, printed without the tag): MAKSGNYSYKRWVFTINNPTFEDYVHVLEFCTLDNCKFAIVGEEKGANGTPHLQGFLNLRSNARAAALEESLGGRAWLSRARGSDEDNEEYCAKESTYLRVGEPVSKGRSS
Method: (§1)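 A pool of 90-nt single-stranded DNAs with seven random bases just before the constant AC of the nick site (name = the seven bases) was cut by 3 µM recombinant His6-SUMO-tagged Rep nickase domain (300 nM DNA, 50 mM HEPES pH 8.0, 50 mM NaCl, 1 mM MnCl2, 1 h, 37 °C, three replicates). Uncut DNA was amplified and sequenced.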

[2] = tested on: T2, Rep nickase domain of banana bunchy top virus
T2 sequence (Rep 1-94, printed without the tag): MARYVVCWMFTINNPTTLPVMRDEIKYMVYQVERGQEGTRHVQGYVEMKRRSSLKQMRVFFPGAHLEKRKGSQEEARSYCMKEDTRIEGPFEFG
Method: as §1

[3] = tested on: T3, Rep nickase domain of cabbage leaf curl virus
T3 sequence (Rep 1-116, printed without the tag): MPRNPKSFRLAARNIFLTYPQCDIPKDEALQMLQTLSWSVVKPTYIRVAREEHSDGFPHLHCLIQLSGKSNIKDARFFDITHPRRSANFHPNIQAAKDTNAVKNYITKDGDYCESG
Method: as §1

[4] = tested on: T4, Rep nickase domain of chickpea chlorotic dwarf virus
T4 sequence (Rep 1-124, printed without the tag): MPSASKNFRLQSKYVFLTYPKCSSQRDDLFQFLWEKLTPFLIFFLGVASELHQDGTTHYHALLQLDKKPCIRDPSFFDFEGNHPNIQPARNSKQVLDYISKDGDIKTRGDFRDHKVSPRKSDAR
Method: as §1

[5] = tested on: T5, Rep nickase domain of faba bean necrotic yellows virus
T5 sequence (Rep 1-98, printed without the tag): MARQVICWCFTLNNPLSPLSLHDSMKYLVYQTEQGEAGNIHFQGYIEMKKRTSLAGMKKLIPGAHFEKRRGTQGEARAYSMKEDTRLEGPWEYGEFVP
Method: as §1

[6] = tested on: T6, Rep nickase domain of maize striate mosaic virus
T6 sequence (Rep 1-117, printed without the tag): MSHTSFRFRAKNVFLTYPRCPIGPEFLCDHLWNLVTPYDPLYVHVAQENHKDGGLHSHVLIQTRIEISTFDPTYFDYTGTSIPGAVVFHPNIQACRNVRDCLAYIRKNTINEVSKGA
Method: as §1

[7] = tested on: T7, Rep nickase domain of porcine circovirus 2
T7 sequence (Rep 2-116, printed without the tag): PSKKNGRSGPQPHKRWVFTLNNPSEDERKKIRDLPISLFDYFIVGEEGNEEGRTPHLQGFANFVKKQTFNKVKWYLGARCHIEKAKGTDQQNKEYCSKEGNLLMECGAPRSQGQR
Method: as §1

[8] = tested on: T8, Rep nickase domain of tomato golden mosaic virus
T8 sequence (Rep 1-124, printed without the tag): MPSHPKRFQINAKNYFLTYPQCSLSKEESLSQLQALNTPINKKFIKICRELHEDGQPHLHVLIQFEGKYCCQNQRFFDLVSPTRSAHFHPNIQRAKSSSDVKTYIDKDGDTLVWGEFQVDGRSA
Method: as §1

[9] = tested on: T9, Rep nickase domain of tomato yellow leaf curl virus
T9 sequence (Rep 1-136, printed without the tag): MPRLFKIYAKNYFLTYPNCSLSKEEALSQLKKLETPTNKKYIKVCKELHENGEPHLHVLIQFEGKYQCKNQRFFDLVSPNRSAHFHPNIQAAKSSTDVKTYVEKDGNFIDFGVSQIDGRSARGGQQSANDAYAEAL
Method: as §1

[10] = tested on: T10, Rep nickase domain of wheat dwarf virus
T10 sequence (Rep 1-137, printed without the tag): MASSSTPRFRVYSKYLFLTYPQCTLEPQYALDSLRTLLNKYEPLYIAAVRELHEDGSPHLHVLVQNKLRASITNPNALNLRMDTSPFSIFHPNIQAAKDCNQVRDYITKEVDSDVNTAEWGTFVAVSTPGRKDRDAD
Method: as §1

Sequence | uncleaved DNA left (log2) [1] | uncleaved DNA left (log2) [2] | uncleaved DNA left (log2) [3] | uncleaved DNA left (log2) [4] | uncleaved DNA left (log2) [5] | uncleaved DNA left (log2) [6] | uncleaved DNA left (log2) [7] | uncleaved DNA left (log2) [8] | uncleaved DNA left (log2) [9] | uncleaved DNA left (log2) [10]
TTCGCAT | -0.0384 | -0.0351 | -0.135 | -0.576 | -0.0112 | -0.791 | -0.0886 | -0.216 | 0.0457 | -0.124
CATATGC | -0.0312 | -0.0411 | -0.743 | -0.772 | -0.0238 | -1.47 | 0.0583 | -0.2 | 0.00502 | -0.175
ACATTCA | 0.103 | 0.0347 | -0.219 | -1.33 | 0.128 | -0.707 | 0.0954 | 0.0649 | 0.0172 | 0.0354
CTCAAGG | 0.117 | 0.0487 | 0.531 | 1.4 | 0.0893 | 1.38 | 0.111 | 0.137 | 0.00192 | 0.121
GACATTT | 0.023 | 0.00275 | 0.711 | 1.17 | 0.029 | 1.94 | -0.277 | -0.139 | 0.0355 | 0.141
ACCAGGT | 0.142 | 0.0544 | 0.257 | 0.843 | 0.165 | 0.0882 | 0.262 | 0.0972 | 0.0386 | 0.142
CCCGTAT | 0.0128 | -0.0202 | 0.209 | -0.391 | 0.139 | -0.141 | 0.135 | 0.209 | 0.072 | -0.0141
GTGTGGA | 0.14 | 0.13 | 0.401 | 0.912 | 0.122 | 1.18 | 0.0706 | 0.106 | 0.0644 | 0.0342
AGTCAGG | 0.0602 | -0.0155 | 0.17 | 0.872 | -0.0688 | 0.449 | 0.0576 | 0.0629 | -0.123 | -0.103
TAGAGGG | 0.117 | 0.0196 | 0.0793 | 0.113 | 0.108 | -0.426 | 0.176 | 0.121 | 0.145 | 0.0406
CTGAAAG | 0.0575 | 0.0339 | -0.742 | -0.36 | 0.0549 | -0.934 | 0.0373 | 0.0787 | 0.081 | -0.0586
CGAAGTC | 0.0689 | 0.00584 | -0.0941 | -0.0999 | 0.0394 | -0.352 | 0.0611 | 0.0661 | -0.00488 | -0.0387
TCCCCCG | -0.209 | -0.116 | -0.826 | -0.481 | -0.193 | -0.991 | -0.246 | -0.191 | -0.152 | -0.155
GGGGTCT | 0.00662 | 0.147 | 0.818 | 1.84 | 0.0319 | 2.25 | 0.159 | 0.0597 | 0.117 | 0.201
TCCTTGA | 0.0624 | -0.0898 | -0.16 | -0.171 | -0.0236 | -0.821 | 0.0883 | 0.0455 | 0.0589 | -0.041
CTGCGAA | -0.0669 | -0.15 | -0.697 | -0.39 | -0.0951 | -1.04 | 0.16 | -0.138 | 0.0279 | -0.0553
TGGCCCG | -0.084 | -0.0872 | -0.748 | -0.102 | -0.0155 | -0.645 | 0.0479 | -0.0263 | -0.0938 | -0.0449
CATCGGA | -0.00119 | -0.0424 | 0.0605 | 0.0605 | 0.013 | -0.427 | 0.0678 | -0.0529 | 0.0344 | -0.0326
GGCGTCC | 0.00376 | -0.0252 | 0.257 | 0.734 | -0.0924 | 1.06 | -0.0758 | -0.0855 | -0.0606 | -0.0295
TTATCTG | 0.153 | 0.0916 | -0.00442 | 0.316 | 0.107 | 0.542 | 0.0684 | 0.0221 | 0.0437 | 0.114
AACCGCA | -0.101 | -0.0922 | -0.386 | -1.39 | -0.0748 | -1.09 | -0.225 | -0.124 | -0.0234 | -0.0425
CAGAGGT | 0.0911 | 0.12 | 0.404 | 1.13 | 0.0985 | 1.41 | -0.698 | 0.191 | 0.0788 | 0.0985
CATATCT | -0.0944 | -1.74 | -0.399 | -2.85 | -0.036 | -0.905 | -1.46 | 0.0298 | 0.059 | 0.0252
GGGGGCG | 0.00279 | 0.0207 | -0.18 | 0.816 | 0.115 | 0.533 | 0.108 | 0.0833 | -0.0747 | -0.0714
TAGCCAA | -0.0364 | -0.0535 | 0.113 | -0.548 | -0.109 | -0.274 | -0.209 | 0.0204 | 0.0879 | 0.083
CATGAGA | 0.178 | 0.0522 | -0.517 | -0.498 | 0.245 | -1.03 | 0.255 | 0.0232 | 0.119 | 0.0688
CTACCGT | -0.112 | -0.0812 | -0.506 | -1.76 | -0.132 | -0.96 | -0.389 | -0.121 | -0.249 | -0.214
CGCGGAA | -0.0494 | -0.0727 | -0.149 | 0.228 | -0.0313 | -0.27 | 0.104 | -0.0508 | -0.00675 | -0.0759
GACGACG | 0.0387 | 0.0751 | -0.101 | 0.361 | 0.0828 | 0.334 | 0.166 | 0.168 | -0.0233 | 0.245
AGTATTA | -0.0825 | -0.129 | -0.0162 | -0.639 | -0.122 | -0.277 | -1.77 | -0.139 | -0.0136 | 0.0285
